Experimental data reported in patent US20200231654A1 (Daiichi Sankyo, published 2020).

Target: T1, pro-mMMP-9(cat)_His6_FLAG_Avi (mouse, UniProt P41245 20-450)
T1 construct: Secretion signal Met1-Ala19 left out; also called pro mouse MMP-9 enzyme active domain; pro mouse MMP-9; not shown: His tag (His6 by the construct's name)
Assay: immunoprecipitation on Protein G beads, Western blot

T1 sequence (P41245 other isoform, or with tags, fused parts or gaps): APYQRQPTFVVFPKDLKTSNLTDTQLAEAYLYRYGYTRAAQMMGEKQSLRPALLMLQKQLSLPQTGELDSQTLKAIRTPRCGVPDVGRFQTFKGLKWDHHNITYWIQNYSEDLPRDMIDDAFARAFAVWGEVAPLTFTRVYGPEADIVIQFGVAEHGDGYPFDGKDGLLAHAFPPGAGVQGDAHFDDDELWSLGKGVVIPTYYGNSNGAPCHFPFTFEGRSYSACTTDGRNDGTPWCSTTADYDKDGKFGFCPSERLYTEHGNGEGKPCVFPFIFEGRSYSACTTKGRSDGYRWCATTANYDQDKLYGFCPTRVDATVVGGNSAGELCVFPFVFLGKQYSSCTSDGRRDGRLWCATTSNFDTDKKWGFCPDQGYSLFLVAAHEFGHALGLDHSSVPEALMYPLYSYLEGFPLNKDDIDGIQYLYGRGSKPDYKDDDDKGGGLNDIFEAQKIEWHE

B1: active MMP-9-binding peptide C-terminal conjugate M91005-Fc-01 (Fc fusion)
chain: GSGMKETAAAKFERQHMDSPDLGTDDDDKAMADIGSANSDPQFGLFSKYRTPNCRKRGGPSCQMSYNPVCGSDMSTYANECTLCMKIREGGHNIKIIRNGPCGASAAAGGGGS[… human IgG1 Fc …]
binding result: no binding
